Measured values published in the supplement of paper PMC11417369.
The list shows a part of the results.

Tested on: PfAP2-HC AP2 domain (GST-tagged)
Assay: gcPBM binding intensity (ln(normalized median fluorescence intensity)); higher = stronger DNA binding
How it was run: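 An Agilent 4 × 180k array of primer-extended double-stranded 36-bp intergenic genomic probes, with negative controls, was incubated for 1 h with GST-tagged P. falciparum DNA-binding domains expressed in E. coli. Alexa488 anti-GST antibody detected bound protein, scanned at 488 nm. Binding intensity is the highest Masliner-normalised natural-log median intensity across replicate spots of either probe orientation.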

Row | Sequence | gcPBM binding intensity (ln)
1 | ATATAGAACACCTGTGCATGCAAGTGCTAAAAAATT [TGCATGCA_site213] | 10
2 | TAATATTATTTAGAGTGTACTCATAAATCAACAAAA [XGTACX_site5269] | 9.4
3 | CTAAGCTAAGTAAGCTGTACTTCACCTTTATACAGT [XGTACX_site3087] | 9.61
4 | CTATTTTTATATTATTGTACGTTGTTATTATATATA [XGTACX_site1469] | 9.81
5 | TTTATATTTATATATACACACATATACATCCTATTT [CACACA_site3079] | 9.94
6 | ATATATATGGAAACAGTGCAATACATATATATATAT | 9.86
7 | TTTTTTTTTTTTAATACACACATATTTATATTTATT [CACACA_site7802] | 9.82
8 | TTTTTCTTAAAAAATTGTACACATATATATATATAT [XGTACX_site542] | 9.81
9 | ATTAAGTTAAACATTACACACTATGTATTATTTATG [CACACA_site973] | 9.84
10 | AATTGGGTAGGACATGCATGAGAAATTAATATTGCA [TGCATGCA_site356] | 9.96
11 | ATATATATATATATATGTACTAACCTTTTAAAATAT [XGTACX_site6488] | 9.65
12 | TATTACATTGTTGAATGTACTCATTTAAAATTTATA [XGTACX_site7987] | 9.51
13 | AATCAAAGCCCACATACACACACATATATATATATA [CACACA_site7987] | 10.3
14 | ATGTCAAACATTTGCACACAAAAAAATAAAAATTAA [CACACA_site692] | 9.93
15 | TTATACTAAATGAACACACACACATCTATATTTATA [CACACA_site6199] | 10.3
16 | AATTAAAATAATAATACACACATCATAGAAAAAGAC [CACACA_site292] | 10.2
17 | AAATTAGACTATAATACACACATAAAAAAAAAATCA [CACACA_site7672] | 9.82
18 | TTTTTTTTTTTTTTCTCACACATTTAATGATAATAT [CACACA_site5513] | 9.67
19 | CATATTTACTATCACACACACGATATATATAAATAT [CACACA_site1241] | 10.5
20 | TTTTTTTTTTTTTGCACACACATAATAGGTACAAAT [CACACA_site3577] | 9.89
21 | ATTTATATTAATGGATAAATAAATGTGTACTTGATA [CACACA_negctrl_site24] | 9.58
22 | TTCTTTATTATATGCACACGTACATATAATATATAT [CACACA_site2018] | 9.96
23 | ATCAACAAAACATACACACACATATAGATTTATATA [CACACA_site7415] | 10.2

Row | Sequence | gcPBM binding intensity (ln)
24 | AAAAAAAAAAAACACACACACATATATATATATATA [CACACA_site732] | 11.1
25 | TTATGTAAAATCGATACATGCATTAATCATTTTATA [TGCATGCA_site493] | 9.57
26 | TCATATTTCCATAGGAGTACATAAAAAAAATAATAT [XGTACX_site7601] | 9.57
27 | TATGATATGTTATACACACACGTATTTATGAATTGA [CACACA_site7591] | 9.89
28 | AAAATGTAGAAATGGGTGCACACACATATATAATAT | 10.4
29 | TATATATATAAAAGTTGTACAGTGTTTTATATAGTT [XGTACX_site7085] | 9.69
30 | AATTAGCTATTTAAAAATATATAAAATTTATATATA [CACACA_negctrl_site390] | 9.36
31 | GAAATAGAGAGACACACACACATATATTTATGTATT [CACACA_site7794] | 10.4
32 | ATCATATTGAATATTTAACACACATTTCGCTTAATT [CACACA_site8652] | 9.8
33 | TAATGCATTATTAGAATACACACCATACGCATATTT [CACACA_site289] | 9.77
34 | TGATGTTGTAACAAAAGTACACACACATTTCTATAA [XGTACX_site5837] | 9.96
35 | TTTTCAATTAATAATACACACATGTATATATCATTA [CACACA_site7539] | 9.75
36 | TTTTTCTTTTGATGTTGTACATATATATTATATATA [XGTACX_site2754] | 9.72
37 | AACTGTACAATTTTTGTGCACAATAATTATTAATAT [GTGCAC_site9462] | 9.64
38 | TGCTATATAATATGAGCACACATAAGATTTGGTGTT [CACACA_site8148] | 9.66
39 | ATATTTTTATTTAAACGTACATACACGTTGAAAAGA [XGTACX_site4567] | 9.43
40 | AACTATAAAAAAAATACACACATTACCAAAAATATA [CACACA_site1529] | 10.2
41 | AATCTGATTTGTATATGTACACAAATATTTTTATTT [XGTACX_site5295] | 9.9
42 | TTTAATAATTATTAAAGTACAAAATAAATATTGAAT [XGTACX_site7538] | 9.68
43 | TATAAAAAAATATATATATATATATATATATAAATA [TGCATGCA_negctrl_site22] | 9.45
44 | AAGAAAAAAAAAAAAAATATATATATAAGAACATAT [TGCATGCA_negctrl_site131] | 9.71
45 | GATAAAACGTTATGCACACGTACGTGGGTATTTATA [CACACA_site4954] | 10.1
46 | AAAAAAAAAAAATACACACACACATATTTATTTATA [CACACA_site6483] | 10.6

Row | Sequence | gcPBM binding intensity (ln)
47 | AAAAAAAAAAATAAATGTACAAAATAATGGGGAACA [XGTACX_site8723] | 9.96
48 | GTGAATGATTTAAGTACACACCGGTATTTATTCAAA [CACACA_site4950] | 9.66
49 | ATATATATATATATATGTACATATTTTATTTAATTT [XGTACX_site1807] | 9.85
50 | TGTATTAAAAATTTGGTGCAACTTTTACATAATAAT | 9.66
51 | TTTTTTTTTTTTTTTTGTACGAATAAACAAGTTATT [XGTACX_site5473] | 9.16
52 | AATATTTATATTAACTGTACAGAAAATATCTTTGCT [XGTACX_site8130] | 9.62
53 | TTCTTTTTTTTTTTTTCATGTATATTAAACTTTTCA [TGCATGCA_negctrl_site592] | 9.66
54 | GATATATAAATTGACACACACATATATACCTATATA [CACACA_site6689] | 10.3
55 | CATAAGATTTTTACATGTACATATTTATAATATATT [XGTACX_site6578] | 9.87
56 | AATATAAAAATGTTTACACACACACCGAAATATATT [CACACA_site8800] | 11.2
57 | TATGCCATGGCATAATGTACATAAGTGACCTCATAA [XGTACX_site1294] | 9.56
58 | GATTCGATCTATATATGTACACATAAATATTTTTTG [XGTACX_site7015] | 9.7
59 | TATATATTTATTTATTGTACACTCTTTAAGAATACA [XGTACX_site2569] | 9.6
60 | TATATATATATATATATATATATATATGTGTATGTA [TGCATGCA_negctrl_site255] | 10.3
61 | ATACACAAGAATATGTTGCACTTTTATATTCGTATG | 9.79
62 | AATAAAATTGACCATTCACACAAGAAAAATTAATCA [CACACA_site5636] | 9.7
63 | AAAAGAATTAATTTATGTACTAATTTCAAGAAATAA [XGTACX_site3241] | 9.35
64 | TCCTTACACACACTTTTTTTTTTTTTTTTTTCTACA [GTGCAC_negctrl_site263] | 9.93
65 | ATATATTATCAACTTACACACAGAAAACTATAATAA [CACACA_site6275] | 9.87
66 | CTTTTTCCTTTATAAAGTACTTAAAATATTTAGATA [XGTACX_site4259] | 9.32
67 | CTCGATCAAGTGTATGCATGTACCAGTGAACAAAAA [TGCATGCA_site635] | 9.46
68 | ATATATTTAAAAAAATGTACAAATCATAAATGCAAG [XGTACX_site4230] | 9.73
69 | TATAATGTTGATGATAGTACGTATGAGTTCAAAAAA [XGTACX_site3651] | 9.71

Row | Sequence | gcPBM binding intensity (ln)
70 | AGAAATTAAATGTAAGCACACATAAATTATACACAT [CACACA_site9098] | 9.9
71 | AAAAAATTATACCAGTGTACTTTTTTGGTTTTTCTT [XGTACX_site2601] | 9.53
72 | AACTCTTAGAATGACGGTACAGTATAATAGGTGAAC [XGTACX_site7163] | 9.69
73 | ATATAATGAATTATTAGAAAATAAAATGAATAAAGT [CACACA_negctrl_site690] | 9.87
74 | ATATATATATATAGTGCACACTTAAGAATATAAAGA [CACACA_site4771] | 9.87
75 | TGTTATATAATTTAGCGTACAGGTTATAGGACGGAT [XGTACX_site8823] | 9.76
76 | AACTATTACTTTCTTTCACACATTTTTTTTTTTTTT [CACACA_site5355] | 9.75
77 | ATCATATAAACATATTGTACTTAAATACATAATATT [XGTACX_site3800] | 9.67
78 | TTTATTTATTTATGTGGTACTTCAAAAATATATACT [XGTACX_site355] | 9.62
79 | GGATACGCTTTTGTACCACTCCCCCTTTTGGGAATA [CACACA_negctrl_site1363] | 9.4
80 | CAAACCCACGGACACACACACACAAAAATGATTAAA [CACACA_site5365] | 10.4
81 | AAATTGGGTACAAATACACACACATATATATATTAA [CACACA_site8745] | 10.5
82 | ATAGATCCTAATGTTGTGCACATGTAAATTAATATA | 9.71
83 | TTTATACAATAAAATGCATGCAAGTATCTATTTTAT [TGCATGCA_site210] | 9.65
84 | TCAGATATATAGAATACACACATGGATATAAGAAAT [CACACA_site7831] | 9.87
85 | TTTTTGTAATATTATGATGTCATATATATATATATA [XGTACX_negctrl_site618] | 9.6
86 | ATATTTTGTAACTATACACACATATATATATTATAA [CACACA_site3062] | 9.77
87 | CAAAAGAATATATGTAGTACATGTTGTAGATAATAT [XGTACX_site1044] | 9.83
88 | CGCGAAGTAGCATTCACACACAGCAAAATATAAATA [CACACA_site7608] | 9.99
89 | TATAATGAACATATGTGTACATATATTTTTTAAATT [XGTACX_site8736] | 9.64
